In publication PMC4336329 (PLoS ONE, 2015):
The campaign covered roughly 310,000 compounds. About 14,000 (4.5%) showed an effect of 50% or more. Effects have a minus sign here. The list shows a part of the results.

molecular target: human ether-à-go-go-related gene (hERG) potassium channel (human, UniProt Q12809); experiment: primary screen, population patch clamp on CHO cells stably expressing hERG
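Also: peak tail current of the secondary pulse compared with the same well before compound.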

Sequence of human ether-à-go-go-related gene (hERG) potassium channel (Q12809 whole entry, looked up): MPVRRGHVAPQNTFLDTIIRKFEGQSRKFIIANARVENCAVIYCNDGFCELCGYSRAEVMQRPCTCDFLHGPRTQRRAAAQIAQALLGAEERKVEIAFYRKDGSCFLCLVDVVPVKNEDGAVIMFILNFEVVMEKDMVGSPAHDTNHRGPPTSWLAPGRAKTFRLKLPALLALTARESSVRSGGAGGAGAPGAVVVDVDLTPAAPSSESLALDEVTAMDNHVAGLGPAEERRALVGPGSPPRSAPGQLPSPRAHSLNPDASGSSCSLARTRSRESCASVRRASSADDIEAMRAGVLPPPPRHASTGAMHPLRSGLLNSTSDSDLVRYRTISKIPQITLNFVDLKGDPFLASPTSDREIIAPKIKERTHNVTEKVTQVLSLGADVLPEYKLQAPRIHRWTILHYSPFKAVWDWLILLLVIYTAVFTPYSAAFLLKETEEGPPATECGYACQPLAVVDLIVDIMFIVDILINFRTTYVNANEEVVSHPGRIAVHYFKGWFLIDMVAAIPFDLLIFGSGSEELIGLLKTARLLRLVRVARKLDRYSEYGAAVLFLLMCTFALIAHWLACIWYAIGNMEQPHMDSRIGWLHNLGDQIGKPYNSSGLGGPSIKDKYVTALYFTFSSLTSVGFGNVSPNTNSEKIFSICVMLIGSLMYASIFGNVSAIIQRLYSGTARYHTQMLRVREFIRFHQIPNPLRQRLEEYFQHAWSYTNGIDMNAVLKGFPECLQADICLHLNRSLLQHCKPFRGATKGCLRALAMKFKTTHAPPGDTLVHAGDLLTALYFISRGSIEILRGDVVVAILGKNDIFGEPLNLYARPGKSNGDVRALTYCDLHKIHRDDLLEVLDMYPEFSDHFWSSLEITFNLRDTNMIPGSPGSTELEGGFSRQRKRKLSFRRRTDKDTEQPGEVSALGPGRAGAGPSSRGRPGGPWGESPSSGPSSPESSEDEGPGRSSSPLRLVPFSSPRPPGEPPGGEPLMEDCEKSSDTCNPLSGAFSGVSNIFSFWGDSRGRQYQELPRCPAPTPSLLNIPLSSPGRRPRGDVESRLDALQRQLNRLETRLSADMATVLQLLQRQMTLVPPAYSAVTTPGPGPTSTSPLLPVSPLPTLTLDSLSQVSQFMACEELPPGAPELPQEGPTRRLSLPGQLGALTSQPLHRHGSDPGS

SMILES	hERG current change (%, negative = inhibition) at 10uM
Cc1ccc(-c2csc(=Nc3cccnc3)n2CCCn2ccnc2)cc1C	-70.2%
O=C1CCCC2=C1C(c1ccc(Br)cc1)c1c([nH]c(=S)[nH]c1=O)N2 (stereo not shown)	-11.4%
O=C(Nc1cccc(F)c1)c1ccc2c(c1)OCO2	12.3%
Cc1[nH]c(-c2ccc(F)cc2)cc1C(=O)N1CCN(c2ccccc2F)CC1	-70.3%
Cc1ccc(OCCCCCN2CCOCC2)c(Cl)c1	-15.3%
O=C(NC(=S)Nc1ccc(Br)c(Cl)c1)C1CC1	4.33%
O=C(Nc1ccccc1C(=O)NC(Cc1c[nH]c2ccccc12)C(=O)O)c1ccccc1 (stereo not shown)	7.09%
Clc1ccc2nc(-c3ccncc3)cc(-c3ccccc3)c2c1	19.9%
Cc1ccc(Cl)cc1N1CCN(C(=O)C2CCN(S(C)(=O)=O)CC2)CC1	-14%
Fc1ccc(-c2csc3[n+]2CCS3)cc1.[Br-]	5.38%
COc1cccc(CN(C(=O)c2ccc([N+](=O)[O-])cc2)C2CCS(=O)(=O)C2)c1 (stereo not shown)	-48.9%
CC(C)(C)NC(=O)CN(C(=O)CS(=O)CC(=O)Nc1ccc(F)cc1)c1ccc(Cl)cc1 (stereo not shown)	3.73%
O=C(OCC(=O)N(Cc1ccccc1)Cc1ccccc1)c1ccccc1O	5.67%
COc1ccc(OC)c(N(C)S(=O)(=O)c2ccc3c(c2)N(C(C)=O)CCO3)c1	-3.44%
COc1ccc(OC)c(N=c2oc3c(OC)cccc3cc2C(=O)NCc2ccco2)c1	10.9%
CC(=O)Nc1nc2ccccc2n1CCN1CCOCC1	0.217%
NC(=O)NCC12CC3CC(CC(C3)C1)C2	6.45%
Cc1ccc(C2N(c3ccccc3)C(=S)N3CCCN23)cc1 (stereo not shown)	7%
CSc1n[nH]c(=O)n1C1CCCCC1	4.83%
Cc1ccc(NC(=O)COc2ccccc2C(=O)Nc2ccccc2)cc1Cl	-2.06%
CC(=O)c1c(N)c(C#N)c(C)n1-c1ccc(Br)cc1	7.87%
CC(OC(=O)c1cc(=O)[nH]c2ccccc12)C(=O)NCc1ccccc1 (stereo not shown)	3.74%
CCOC(=O)Cn1c(=O)c(F)cn(Cc2ccc(OC)c([N+](=O)[O-])c2)c1=O	2.55%

SMILES	hERG current change (%, negative = inhibition) at 10uM
COc1cnc(-c2ccccn2)nc1Sc1ccc(Cl)cc1	-15.5%
O=[N+]([O-])c1cccc2ccc(/C=C/c3ccc(Cl)cc3)nc12	-4.41%
COc1cccc(-c2nnn(CC(=O)Nc3cc(OC)c(NC(=O)c4ccco4)cc3OC)n2)c1	3.74%
O=C(CCN1CCCCC1)Nc1ccccc1	32.9%
CSc1nnc(-c2ccco2)n1-c1ccccc1	2.91%
Cc1ccnc2nc(C(=O)NCc3cccs3)nn12	-0.776%
COc1ccc(NC(=O)N2CCCC(CCC(=O)N(C)CCc3ccccn3)C2)cc1 (stereo not shown)	-0.704%
COc1ccc(CCNC(=S)Nc2ccccc2C)cc1	2.1%
CCC(=O)Nn1c(C2CCC2)nc2ccccc2c1=O	17.6%
CCCCN1C(=O)CC(Sc2ccccc2C(=O)O)C1=O (stereo not shown)	0.971%
CCOC(=O)C1=C(c2ccccc2)OC(N)=C(C#N)C1c1cccnc1 (stereo not shown)	17.3%
CCOc1ccccc1OCCCC(=O)NC1=NCCS1	5.49%
NC(=O)CCn1c2ccccc2c2ccccc21	22%
CCc1nc(SCC(=O)NC2CCCC2)c2c(=O)n(C)c(=O)n(C)c2n1	6.92%
Cc1ccc(NC(=O)C2Cc3ccccc3CN2C(=O)c2ccccc2)cc1Cl (stereo not shown)	2.92%
CN1CCN(S(=O)(=O)c2cccc(C(=O)Nc3ccccc3N3CCCCC3)c2)CC1	5.25%
CC(OC(=O)Cc1ccc(Br)cc1)C(=O)NC1CCCCC1C (stereo not shown)	-4.65%
O=C(CN1C(=O)/C(=C/c2ccc(F)cc2)SC1=S)NC1CCS(=O)(=O)C1 (stereo not shown)	10.3%
Cc1ccc(SCCC(=O)N/N=C/c2ccncc2)cc1	-9.18%
CCOc1cc(CNc2ccc(CNc3ncn[nH]3)cc2)ccc1OCc1ccccc1	7.09%
COc1ccc(CNS(=O)(=O)c2csc(C(N)=O)c2)cc1OC	16%
COc1cccc(C(=O)CSc2nc3cccnc3n2C)c1	4.59%
CCC(=O)Nc1cccc(NC(=S)NC(=O)c2ccccc2C)c1	2.68%

SMILES	hERG current change (%, negative = inhibition) at 10uM
CCOc1ccccc1NC(=O)CSc1cn[nH]n1	-12.1%
Cc1ccc(NC(=O)Cn2nnc(C(=O)NCc3ccc4c(c3)OCO4)c2N)cc1	28.6%
O=C(COC(=O)c1cccc(Cl)c1Cl)NCCN1C(=O)CSC1=O	-12.4%
COC(=O)c1cc(C(=O)N2CCN(c3cccc(C)c3C)CC2)cc([N+](=O)[O-])c1	-39.6%
Cc1cc(C)c(S(=O)(=O)NCc2cn3c(C)csc3n2)cc1C	-7.39%
CCOc1ccc(CC(=O)NC2CC(C)(C)N(C)C(C)(C)C2)cc1OCC	8.47%
COC(=O)c1[nH]c2ccc(C)cc2c1NC(=O)c1ccccc1[N+](=O)[O-]	0.122%
S=C(NCCN1CCCCC1)Nc1ccc(Br)cc1	-69.1%
COc1cc(C(=O)N/N=C/c2ccc(OC(=O)N3CCOCC3)cc2)cc(OC)c1OC	14.3%
O=C(NNc1ccc(O)cc1)c1ccc(Br)cc1	-12.2%
CCOC(=O)c1nc(Nc2ccc(C(C)=O)cc2)c2ccccc2n1	-2.37%
N#Cc1ccc(CSc2nnc3[nH]c(=O)cc(N)n23)cc1	-5.44%
COc1ccc(/C=N/Nc2nnc(Cc3ccc(OC)c(OC)c3)c(=O)[nH]2)cc1OC	18.9%
Cc1nn(-c2ccccc2)cc1C(c1c(N)[nH]c(=S)[nH]c1=O)c1c(N)[nH]c(=S)[nH]c1=O	37.5%
NNC(=O)c1cccn(Cc2ccc(Cl)cc2Cl)c1=O	4.66%
CCCCc1c(C)nc2c(OC)cccc2c1SCC(=O)O	12.3%
Cc1ccc(OCc2nnc(SCC(=O)c3cccc([N+](=O)[O-])c3)n2C)cc1	-4.83%
COc1ccccc1N=c1sc2ccccc2n1C	-17.9%
O=C(CN1CCN(c2ccc(C(F)(F)F)cn2)CC1)Nc1ccc2c(c1)OCO2	-14%
COCc1cc(/C=N\NC(=O)COc2ccc(Cl)cc2)ccc1OC	17.4%
CN1CCN(c2nnc(-c3cccs3)c3ccccc23)CC1	-53.9%
CC(C)c1nnc(NC(=O)C2CCN(S(=O)(=O)c3ccc(-n4cnnn4)cc3)CC2)s1	16.3%
Cc1ccc(S(=O)(=O)N2CCC(C(N)=O)CC2)c(C)c1C	-6.06%

SMILES	hERG current change (%, negative = inhibition) at 10uM
Cc1ccc2nc(SC(C)C(=O)N3CC(C)OC(C)C3)[nH]c2c1 (stereo not shown)	7.59%
CC(C)(C)n1nc2c(c1NC(=O)c1cc3ccccc3o1)CSC2	-12.9%
Cc1ccc(NC(=O)c2ccc3c(c2)OCO3)cc1Cl	-2.98%
CCN1CCN(C(=O)CCCn2c(C)c3cnn(-c4ccccc4)c(=O)c3c2C)CC1	15.6%
COc1ccc(C(C)=O)cc1COC(=O)c1ccc2c(c1)OCO2	22.2%
O=C(c1n[nH]c2ccccc12)N1CCOCC1	10.1%
CC1=C(C(=O)NC2CC(C)(C)Cc3c2cnn3-c2cccc(F)c2)OCCO1 (stereo not shown)	-43.5%
COc1cc(SC)ccc1C(=O)OCC(=O)NC1CCCC1	1.72%
Cc1ccc(N2CCN(S(=O)(=O)c3c(C)nc4scc(C)n4c3=O)CC2)c(C)c1	-2.56%
O=C(Nc1cccc(-n2cnnn2)c1)c1ccc(Cl)cc1Cl	4.58%
CCN1C(=O)/C(=C2\Sc3ccccc3N2CC)OC1=S	21.1%
CN(C)CCCN(C(=O)c1sc2ccccc2c1Cl)c1nc2c(F)cccc2s1.Cl	-61.9%
O=C(O)CC(SCC(=O)Nc1ccc(S(=O)(=O)N2CCCC2)cc1)C(=O)O (stereo not shown)	20.4%
O=C(CCCc1c[nH]c2ccccc12)N1CCN(c2ccc(N3CCOCC3)nn2)CC1	-22.2%
Cc1cccc(N2CCN(CC(=O)NCc3ccc(Cl)cc3)CC2)c1C	-29.2%
COCCCn1c(SCC(=O)NC(C)C)nnc1-c1ccccc1	-8.87%
Cc1cc(C)c(NC(=O)c2cccc(NC(=O)c3ccco3)c2)c(C)c1	-9.17%
O=C(O)CC1S/C(=N/N=C/c2ccccn2)NC1=O (stereo not shown)	14.7%
O=C(Oc1cccccc1=O)c1ccccc1	-10.2%
O=C(COc1cc(Cl)ccc1Cl)Nc1nnc(C2CC2)s1	14.4%
O=C(O)c1cc(NN=Nc2cccc(S(=O)(=O)O)c2)cc([N+](=O)[O-])c1	7.65%
CCNC(=O)NC(=O)CSc1nnc(-c2c[nH]c3ccccc23)o1	8.44%
